# Assay results taken from PubChem BioAssay AID588591 (National Center for Advancing Translational Sciences (NCATS), 2011).
# Hit rate of the full screen: of about 390,000 compounds, about 4,700 (1.2%) were called active. The inconclusive results got no clear call from the source; some entries with a clear call stand among them for comparison. Calls come from the whole dose curve; as a rule, active = well fitted inhibition curve with a large enough effect; inconclusive = small, poorly fitted or top-dose-only effect, or another doubt; inactive = no such curve, though single readings can be large or run the other way. Where the call is inconclusive, the potency comes from a doubtful curve fit.
# Molecular target: DNA polymerase eta (Homo sapiens) (UniProt Q9Y253)
# Sequence of UniProt Q9Y253 (Q9Y253 whole entry, looked up): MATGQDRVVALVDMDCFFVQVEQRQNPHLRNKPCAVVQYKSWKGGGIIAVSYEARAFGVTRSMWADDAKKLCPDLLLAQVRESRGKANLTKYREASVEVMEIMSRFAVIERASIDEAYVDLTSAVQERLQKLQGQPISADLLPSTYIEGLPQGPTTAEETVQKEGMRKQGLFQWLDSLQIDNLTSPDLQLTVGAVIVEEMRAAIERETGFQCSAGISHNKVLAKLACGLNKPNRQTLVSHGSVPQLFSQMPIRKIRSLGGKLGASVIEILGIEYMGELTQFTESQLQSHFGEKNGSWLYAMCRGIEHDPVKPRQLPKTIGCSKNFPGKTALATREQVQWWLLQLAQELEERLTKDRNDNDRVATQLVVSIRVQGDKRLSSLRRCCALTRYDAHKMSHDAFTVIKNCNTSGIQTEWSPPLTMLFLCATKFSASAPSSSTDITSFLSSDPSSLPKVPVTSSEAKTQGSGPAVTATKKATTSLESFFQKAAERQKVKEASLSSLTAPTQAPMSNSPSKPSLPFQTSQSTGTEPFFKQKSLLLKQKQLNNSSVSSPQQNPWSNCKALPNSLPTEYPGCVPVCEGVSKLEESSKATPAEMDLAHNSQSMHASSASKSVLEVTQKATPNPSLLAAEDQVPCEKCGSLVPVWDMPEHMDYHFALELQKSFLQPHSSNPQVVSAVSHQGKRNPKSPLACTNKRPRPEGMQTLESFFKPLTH
# Assay: qHTS for Inhibitors of Polymerase Eta
# Settings: recombinant Pol eta, fluorescent DNA replication assay; series mostly up to 114 µM
# Method in brief: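 Pol eta (10 nM) was preincubated with compounds for 15 min at room temperature, after which fluorescent replication substrate (50 nM final) was added to start the reaction. Fluorescence was read kinetically at 0 and 10 min.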
# Potency is the fitted concentration of half-maximal effect; tags give direction and shape of the fitted curve.
row,SMILES,Potency
1,CCOc1ccccc1NC(=O)C(OC(=O)c1ccc(NC(=O)CC#N)cc1)c1ccccc1 (configuration not stated),"inconclusive: 50.1 µM [inhibitor, partial curve, poor fit]"
2,NS(=O)(=O)c1ccc(CCNC(=O)CN2CCN(Cc3cccc(C(F)(F)F)c3)CC2)cc1,inactive
3,COc1ccc(NC(=O)CSC2=Nc3ccccc3C3=NC(CCC(=O)NC4CCCCC4)C(=O)N23)cc1Cl (configuration not stated),inactive
4,CCOc1ccccc1CNS(=O)(=O)c1ccc(-c2cnc(C3CC3)o2)cc1,"inconclusive: 50.1 µM [inhibitor, partial curve, poor fit]"
5,COc1ccccc1C(O)(C(=O)NN(C(=O)c1ccccc1)c1ccccc1C)c1cccs1 (configuration not stated),"inconclusive: 50.1 µM [inhibitor, partial curve]"
6,Cc1cc(C(=O)Cn2nc(C(=O)O)c3ccccc3c2=O)c(C)n1-c1ccc(OC(F)F)cc1,"inconclusive: 100 µM [inhibitor, partial curve, poor fit]"
7,Cc1csc2nc(COc3ccc(NC(=O)c4ccccc4F)cc3)cc(=O)n12,"inconclusive: 89.1 µM [inhibitor, single point]"
8,CCN(C(=O)COC(=O)c1ccc(-n2c(C)ccc2C)cc1)c1c(N)n(Cc2ccccc2)c(=O)[nH]c1=O,"inconclusive: 14.1 µM [inhibitor, partial curve, poor fit]"
9,Cc1cc(C(=O)CCl)c(C)n1Cc1ccco1,"inconclusive: 89.1 µM [inhibitor, single point]"
10,CC(=O)NCC1CCCN(Cc2cn(-c3ccccc3)nc2-c2ccc3c(c2)OCO3)C1 (configuration not stated),"inconclusive: 28.2 µM [inhibitor, partial curve, poor fit]"
11,CCC(C)(C)NC(=O)CCCSc1nc2ccccc2[nH]1,"inconclusive: 89.1 µM [inhibitor, partial curve, poor fit]"
12,COc1ccc2[nH]c(=O)c(CN(CCO)S(=O)(=O)c3ccc(C)cc3)cc2c1,inactive
13,COc1ccc(/C=C2/SC(=S)N(NS(=O)(=O)c3ccccc3)C2=O)cc1,active: 89.1 µM
14,O=C(N/N=C/C=C/c1ccco1)C(O)c1ccccc1 (configuration not stated),active: 50.1 µM
15,Cc1sc2nc(CSC(C)C(=O)Nc3ccc(Cl)cn3)[nH]c(=O)c2c1C (configuration not stated),"inconclusive: 79.4 µM [inhibitor, partial curve, poor fit]"
16,COc1ccc(N(CC(=O)N/N=C/c2ccco2)S(=O)(=O)c2ccccc2)cc1,active: 89.1 µM
17,COc1ccc(Cn2c(CCC(=O)Nc3cccc(OC)c3)nc3cccnc32)cc1,inactive
18,CC(=O)N1CCc2cc(CNC(=O)Nc3cc(Cl)ccc3C)ccc21,inactive
19,Cc1ccc(S(=O)(=O)NCC(c2ccc(N(C)C)cc2)N2CCc3ccccc32)cc1C (configuration not stated),inactive
20,COc1cc(SSc2cc(OC)cc([N+](=O)[O-])c2N)c(N)c([N+](=O)[O-])c1,inactive
21,COc1ccc(CCNc2nc(-c3ccncc3)cs2)cc1OC,"inconclusive: 89.1 µM [inhibitor, partial curve, poor fit]"

row,SMILES,Potency
1,Cn1c(=O)c2c(nc(NCc3ccco3)n2C/C=C/c2ccccc2)n(C)c1=O,"inconclusive: 20 µM [inhibitor, partial curve]"
2,COc1ccc(N2CC(C(=O)Nc3nc4ccc(S(C)(=O)=O)cc4s3)CC2=O)cc1 (configuration not stated),"inconclusive: 79.4 µM [inhibitor, partial curve]"
3,CN(C(=O)COC(=O)/C=C/c1ccc2ccccc2n1)c1c(N)n(Cc2ccccc2)c(=O)[nH]c1=O,"inconclusive: 31.6 µM [inhibitor, partial curve, poor fit]"
4,COc1cccc(CNc2nccn(-c3cc(C)cc(C)c3)c2=O)c1,inactive
5,COc1ccc(NC(=O)Cn2c(=O)n(Cc3ccco3)c(=O)c3cc(OC)c(OC)cc32)cc1,inactive
6,Cc1ccc(/C=C2/Sc3ccc(C(=O)NCc4ccccn4)cc3NC2=O)cc1,"inconclusive: 25.1 µM [inhibitor, full curve]"
7,COc1ccc2cc(-c3nc(Cl)c4c5c(sc4n3)CCCC5)c(=O)oc2c1,inactive
8,COc1ccc(C(=O)NC(=S)Nc2ccc3oc(=O)ccc3c2)cc1OC,inactive
9,CCOC(=O)CNC(=O)c1ccc(-c2nn(C)c(=O)c3ccccc23)cc1,inactive
10,O=C1NC(=S)N(C(=O)c2ccc(F)cc2)/C1=C/c1cccnc1,inactive
11,N#C/C(=C(/O)COC(=O)CCCNC(=O)c1ccc(Cl)cc1)c1nc2ccccc2[nH]1,"inconclusive: 22.4 µM [inhibitor, single point]"
12,O=C(O)c1ccc(-n2nc(C(F)(F)F)c3c2-c2ccoc2CC3)cc1,"inconclusive: 89.1 µM [inhibitor, single point]"
13,COc1ccc(-c2nn3c(-c4ccco4)nnc3s2)cc1OC,"inconclusive: 39.8 µM [inhibitor, single point]"
14,COc1ccc(CC(=O)Nc2ccc(S(=O)(=O)N3CCC(C)CC3)cc2)c(OC)c1,"inconclusive: 100 µM [inhibitor, partial curve, poor fit]"
15,CC12CCC(=O)N1C(C(=O)Oc1cccc(F)c1)CS2 (configuration not stated),"inconclusive: 20 µM [inhibitor, full curve, poor fit]"
16,CC1(C)[C@@H](O)CC[C@]2(C)C3C(O)C=C4[C@H]5C[C@@](C)(CO)CC[C@]5(C)CC[C@]4(C)[C@]3(C)CC[C@@H]12 (some centres not stated),"inconclusive: 50.1 µM [inhibitor, partial curve, poor fit]"
17,COc1cc(/C=C2\SC(=S)N(Nc3ccccc3)C2=O)ccc1O,"inconclusive: 15.8 µM [inhibitor, full curve, poor fit]"
18,C=CCOc1ccc(C=NNc2ccc(S(=O)(=O)Nc3ccccc3C(=O)O)cc2[N+](=O)[O-])cc1OC,"inconclusive: 10 µM [inhibitor, full curve, poor fit]"
19,CC(C)N1CCN(Cc2cccc(-n3cccn3)c2)CC1CCO (configuration not stated),inactive
20,Cc1noc(/C=C/c2ccc(-c3ccccc3Cl)o2)c1[N+](=O)[O-],active: 12.6 µM
21,Nc1nc(=O)c2ccccc2s1,"inconclusive: 22.4 µM [inhibitor, single point]"
